Assay results reported in the supplement of paper PMC12067093, “Discovery and optimisation of a covalent ligand for TRIM25 and its application to targeted protein ubiquitination” (Chemical Science, 2025).
The full data set covers some 21,000 targets. This sample favours those with the largest changes.

Compound: Cc1cc(ccc1-c1ccccc1)C(=O)N1CCCN(CC1)C(=O)CCl [compound 10]
Experiment: probe-labelled cysteine peptide fold change vs DMSO (competition) (log2 fold change); higher = less target engagement (more negative = stronger competition)
Conditions: THP-1, incubation time: 4 h
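Note: competitive profiling in live THP-1 cells: cysteine peptides tagged with an iodoacetamide desthiobiotin (IA-DTB) probe, intensity after compound treatment relative to DMSO-treated cells.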

Chain of UniProt Q8N4N3 (Q8N4N3 whole entry, looked up): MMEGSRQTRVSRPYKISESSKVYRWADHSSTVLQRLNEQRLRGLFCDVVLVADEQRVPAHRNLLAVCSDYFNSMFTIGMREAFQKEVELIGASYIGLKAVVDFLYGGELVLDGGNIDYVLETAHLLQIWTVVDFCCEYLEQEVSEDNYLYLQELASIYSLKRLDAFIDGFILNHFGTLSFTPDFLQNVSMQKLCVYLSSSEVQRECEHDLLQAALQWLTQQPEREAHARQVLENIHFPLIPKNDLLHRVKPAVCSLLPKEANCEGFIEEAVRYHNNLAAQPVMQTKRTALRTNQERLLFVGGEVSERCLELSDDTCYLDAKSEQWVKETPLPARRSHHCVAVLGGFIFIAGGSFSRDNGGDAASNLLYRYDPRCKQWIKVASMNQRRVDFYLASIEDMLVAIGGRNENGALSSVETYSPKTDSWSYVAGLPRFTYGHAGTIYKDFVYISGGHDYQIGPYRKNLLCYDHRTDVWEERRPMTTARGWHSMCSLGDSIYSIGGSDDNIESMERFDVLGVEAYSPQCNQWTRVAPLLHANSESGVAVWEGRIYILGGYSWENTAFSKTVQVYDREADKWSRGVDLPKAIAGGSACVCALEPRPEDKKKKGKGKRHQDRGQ
Chain of UniProt Q9NSE4 (Q9NSE4 whole entry, looked up): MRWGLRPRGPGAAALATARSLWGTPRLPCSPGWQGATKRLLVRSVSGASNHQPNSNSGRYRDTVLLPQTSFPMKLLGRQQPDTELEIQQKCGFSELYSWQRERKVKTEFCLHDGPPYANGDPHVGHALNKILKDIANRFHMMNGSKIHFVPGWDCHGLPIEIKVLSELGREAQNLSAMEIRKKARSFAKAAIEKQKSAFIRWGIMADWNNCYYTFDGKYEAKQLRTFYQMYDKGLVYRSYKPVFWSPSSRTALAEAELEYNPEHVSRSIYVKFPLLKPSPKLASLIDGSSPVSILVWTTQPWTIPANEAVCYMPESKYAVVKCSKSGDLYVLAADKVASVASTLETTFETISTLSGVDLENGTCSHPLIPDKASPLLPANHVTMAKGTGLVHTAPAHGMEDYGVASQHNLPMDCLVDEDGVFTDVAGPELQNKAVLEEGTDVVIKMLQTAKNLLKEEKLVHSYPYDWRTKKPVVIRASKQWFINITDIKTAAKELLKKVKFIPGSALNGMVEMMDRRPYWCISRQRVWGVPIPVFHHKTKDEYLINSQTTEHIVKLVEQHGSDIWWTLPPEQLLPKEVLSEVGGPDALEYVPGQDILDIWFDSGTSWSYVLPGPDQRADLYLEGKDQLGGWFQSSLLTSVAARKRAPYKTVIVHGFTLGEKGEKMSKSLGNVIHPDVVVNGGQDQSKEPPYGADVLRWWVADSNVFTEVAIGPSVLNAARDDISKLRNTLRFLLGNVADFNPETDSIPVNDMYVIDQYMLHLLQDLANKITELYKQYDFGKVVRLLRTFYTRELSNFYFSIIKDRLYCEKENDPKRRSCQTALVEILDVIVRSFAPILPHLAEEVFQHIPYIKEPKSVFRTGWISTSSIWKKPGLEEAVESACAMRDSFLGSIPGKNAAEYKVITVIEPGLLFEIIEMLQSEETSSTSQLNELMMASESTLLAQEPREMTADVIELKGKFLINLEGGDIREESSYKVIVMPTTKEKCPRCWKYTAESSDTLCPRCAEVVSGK
Chain of UniProt P80217 (P80217 whole entry, looked up): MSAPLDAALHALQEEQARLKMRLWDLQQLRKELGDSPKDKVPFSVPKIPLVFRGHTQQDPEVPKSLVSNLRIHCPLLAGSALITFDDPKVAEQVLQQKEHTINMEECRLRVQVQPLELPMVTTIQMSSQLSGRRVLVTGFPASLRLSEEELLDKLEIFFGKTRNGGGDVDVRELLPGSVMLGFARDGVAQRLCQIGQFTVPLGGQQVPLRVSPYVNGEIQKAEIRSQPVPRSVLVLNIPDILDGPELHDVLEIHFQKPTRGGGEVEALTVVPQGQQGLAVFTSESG
Chain of UniProt Q96EK9 (Q96EK9 whole entry, looked up): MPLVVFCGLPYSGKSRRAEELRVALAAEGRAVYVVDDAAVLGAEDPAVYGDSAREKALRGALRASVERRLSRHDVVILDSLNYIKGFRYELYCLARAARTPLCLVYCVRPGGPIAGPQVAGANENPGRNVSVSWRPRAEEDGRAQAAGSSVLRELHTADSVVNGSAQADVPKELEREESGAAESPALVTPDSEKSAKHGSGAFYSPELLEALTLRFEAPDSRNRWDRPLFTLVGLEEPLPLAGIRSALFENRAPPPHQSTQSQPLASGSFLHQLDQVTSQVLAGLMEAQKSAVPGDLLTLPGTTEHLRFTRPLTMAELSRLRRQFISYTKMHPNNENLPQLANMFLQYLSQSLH
Chain of UniProt Q9P2N6 (Q9P2N6 whole entry, looked up): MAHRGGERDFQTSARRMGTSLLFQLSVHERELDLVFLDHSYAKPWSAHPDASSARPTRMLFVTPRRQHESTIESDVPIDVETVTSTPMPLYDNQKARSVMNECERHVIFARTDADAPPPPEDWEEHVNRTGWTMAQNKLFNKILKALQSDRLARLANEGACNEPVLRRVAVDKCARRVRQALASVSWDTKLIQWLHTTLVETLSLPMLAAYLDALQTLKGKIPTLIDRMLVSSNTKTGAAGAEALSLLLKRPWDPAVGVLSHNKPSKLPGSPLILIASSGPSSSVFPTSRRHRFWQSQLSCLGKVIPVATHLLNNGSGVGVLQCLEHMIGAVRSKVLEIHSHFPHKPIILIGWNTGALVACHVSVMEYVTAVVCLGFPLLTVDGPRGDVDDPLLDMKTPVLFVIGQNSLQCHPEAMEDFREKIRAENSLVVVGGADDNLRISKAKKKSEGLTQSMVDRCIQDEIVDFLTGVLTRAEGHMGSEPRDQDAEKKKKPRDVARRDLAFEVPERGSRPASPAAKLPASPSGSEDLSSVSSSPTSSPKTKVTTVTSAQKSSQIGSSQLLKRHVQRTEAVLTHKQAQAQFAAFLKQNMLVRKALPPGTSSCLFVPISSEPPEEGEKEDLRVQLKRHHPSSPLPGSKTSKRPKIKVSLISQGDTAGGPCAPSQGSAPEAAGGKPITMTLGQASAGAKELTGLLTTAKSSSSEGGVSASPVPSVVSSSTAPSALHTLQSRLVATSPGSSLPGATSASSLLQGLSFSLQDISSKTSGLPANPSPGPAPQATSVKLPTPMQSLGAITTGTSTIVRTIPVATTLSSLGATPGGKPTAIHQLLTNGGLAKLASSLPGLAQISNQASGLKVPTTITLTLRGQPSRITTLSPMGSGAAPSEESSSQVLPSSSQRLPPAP
Chain of UniProt O00629 (O00629 whole entry, looked up): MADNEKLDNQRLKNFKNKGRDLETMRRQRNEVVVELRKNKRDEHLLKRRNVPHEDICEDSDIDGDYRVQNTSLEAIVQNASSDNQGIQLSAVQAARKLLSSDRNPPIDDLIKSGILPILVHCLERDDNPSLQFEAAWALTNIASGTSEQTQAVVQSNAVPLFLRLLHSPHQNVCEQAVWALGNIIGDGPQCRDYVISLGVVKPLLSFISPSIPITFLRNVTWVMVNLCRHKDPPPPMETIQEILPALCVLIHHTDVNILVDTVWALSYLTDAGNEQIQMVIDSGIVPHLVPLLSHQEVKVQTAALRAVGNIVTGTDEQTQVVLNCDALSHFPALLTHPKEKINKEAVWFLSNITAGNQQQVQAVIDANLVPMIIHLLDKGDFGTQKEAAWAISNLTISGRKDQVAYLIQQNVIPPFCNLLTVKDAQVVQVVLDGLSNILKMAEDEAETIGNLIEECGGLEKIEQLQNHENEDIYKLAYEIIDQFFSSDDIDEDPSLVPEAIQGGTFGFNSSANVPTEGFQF
Chain of UniProt Q92835 (Q92835 whole entry, looked up): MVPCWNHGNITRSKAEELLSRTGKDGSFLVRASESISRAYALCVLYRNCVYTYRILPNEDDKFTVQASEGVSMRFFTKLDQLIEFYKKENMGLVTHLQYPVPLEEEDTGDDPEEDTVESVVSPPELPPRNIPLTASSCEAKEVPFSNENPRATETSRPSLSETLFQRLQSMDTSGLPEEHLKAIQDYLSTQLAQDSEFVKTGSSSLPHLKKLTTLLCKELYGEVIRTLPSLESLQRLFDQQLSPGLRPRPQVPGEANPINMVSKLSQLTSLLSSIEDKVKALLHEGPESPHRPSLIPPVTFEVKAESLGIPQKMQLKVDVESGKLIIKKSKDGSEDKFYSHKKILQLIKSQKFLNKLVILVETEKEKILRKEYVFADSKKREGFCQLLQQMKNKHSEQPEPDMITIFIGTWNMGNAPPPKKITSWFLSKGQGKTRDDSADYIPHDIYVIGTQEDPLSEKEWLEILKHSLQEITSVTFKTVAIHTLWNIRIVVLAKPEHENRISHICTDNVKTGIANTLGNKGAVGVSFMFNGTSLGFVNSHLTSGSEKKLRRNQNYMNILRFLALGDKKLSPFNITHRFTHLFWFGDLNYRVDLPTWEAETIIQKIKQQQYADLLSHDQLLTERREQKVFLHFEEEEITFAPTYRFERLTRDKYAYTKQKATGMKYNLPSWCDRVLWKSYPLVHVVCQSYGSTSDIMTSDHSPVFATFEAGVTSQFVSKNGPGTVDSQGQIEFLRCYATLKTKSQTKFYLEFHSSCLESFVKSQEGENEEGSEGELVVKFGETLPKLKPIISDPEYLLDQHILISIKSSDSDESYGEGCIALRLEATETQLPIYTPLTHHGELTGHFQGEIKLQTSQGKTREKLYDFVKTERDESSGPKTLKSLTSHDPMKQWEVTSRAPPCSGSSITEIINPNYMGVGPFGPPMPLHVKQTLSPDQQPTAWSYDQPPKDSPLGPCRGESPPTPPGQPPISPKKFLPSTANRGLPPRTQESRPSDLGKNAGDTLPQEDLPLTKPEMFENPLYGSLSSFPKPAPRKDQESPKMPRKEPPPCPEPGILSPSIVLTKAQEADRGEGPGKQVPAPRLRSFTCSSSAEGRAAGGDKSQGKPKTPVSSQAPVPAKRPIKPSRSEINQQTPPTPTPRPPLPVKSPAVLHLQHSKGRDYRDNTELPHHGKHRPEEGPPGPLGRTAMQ

Target	probe-labelled cysteine peptide fold change (10 µM)	probe-labelled cysteine peptide fold change (50 µM)
ITGB2_P05107_497_SSQELEGSCR (UniProt P05107)	-0.0844	-0.0127
IPO5_O00410_110_KVCDIAAELAR (UniProt O00410)	0.0489	-0.0971
L3HYPDH_Q96EM0_148_VNIHCPCGLVTAFVACEDGR (UniProt Q96EM0)	-0.365	-1.45
KLHL36_Q8N4N3_465_NLLCYDHR (UniProt Q8N4N3)	0.0949	-0.131
KIF2A_O00139_309_GMATCFAYGQTGSGK (UniProt O00139)	0.0819	-0.0128
IQGAP1_P46940_1270_RFFQTACDVPELQDK (UniProt P46940)	0.0567	-0.0367
KIFC1_Q9BW19_95_CSTAIATGLK (UniProt Q9BW19)	-0.0276	-0.161
HNRNPLL_Q8WVV9_505_TLSGLLEWECK (UniProt Q8WVV9)	-0.0676	0.0901
INTS3_Q68E01_740_LLCHLTPSIYTEFPDETLR (UniProt Q68E01)	0.306	0.402
ILKAP_Q9H0C8_325_FILLACDGLFK (UniProt Q9H0C8)	0.00748	-0.207
IDNK_Q5T6J7_83_VVLACSALK (UniProt Q5T6J7)	-0.0499	0.0798
L2HGDH_Q9H9P8_187_GLMAIDCPHTGIVDYR (UniProt Q9H9P8)	0.00491	-0.175
LAMC1_P11047_367_STGHGGHCTNCQDNTDGAHCER (UniProt P11047)	0.875	0.519
KBTBD11_O94819_257_DAAYCFMSDHYLEVLR (UniProt O94819)	-0.0308	-0.131
IGF2R_P11717_1270_LSSDVCPTSDK (UniProt P11717)	-0.189	-0.168
HPS5_Q9UPZ3_37_CTSIAVSR (UniProt Q9UPZ3)	0.0797	0.192
HUWE1_Q7Z6Z7_1401_AESPEEVACR (UniProt Q7Z6Z7)	-0.23	-0.068
IARS2_Q9NSE4_110_TEFCLHDGPPYANGDPHVGHALNK (UniProt Q9NSE4)	-0.111	-0.0208
IRF9_Q00978_241_VVGEAQVQSLDCR (UniProt Q00978)	-0.179	-0.266
KIFC1_Q9BW19_663_VNQCVIGTAQANR (UniProt Q9BW19)	-0.000363	0.211
ITGB2_P05107_582_TTEGCLNPR (UniProt P05107)	0.0502	-0.0473

Target	probe-labelled cysteine peptide fold change (10 µM)	probe-labelled cysteine peptide fold change (50 µM)
KNTC1_P50748_2198_HCGKPVPPDTAPCEILK (UniProt P50748)	-0.336	-0.836
KARS_Q15046_463_LVGEFLEVTCINPTFICDHPQIMSPLAK (UniProt Q15046)	0.0979	0.0536
IGF2R_P11717_275+288_EEAGKLDFCDGHSPAVTITFVCPSER (UniProt P11717)	-0.114	-0.241
KPNA5_O15131_427_PLCDLLTVMDSK<|>KPNA6_O60684_427_PLCDLLTVMDSK<|>KPNA1_P52294_429_PLCDLLTVMDSK (UniProt P52294+O60684+O15131)	0.15	0.0435
HNRNPA1_P09651_43_SHFEQWGTLTDCVVMRDPNTK (UniProt P09651)	-0.0523	-0.0445
KBTBD11_O94819_384_ARPSDQVFCYNPATDSWSAVRPLR (UniProt O94819)	0.0739	-0.0268
IMPDH2_P12268_140_HGFCGIPITDTGR (UniProt P12268)	0.185	0.0285
HSCB_Q8IWL3_79_ALQAPDPTRDYFSLMDCNR (UniProt Q8IWL3)	0.142	-0.245
KTI12_Q96EK9_103_TPLCLVYCVRPGGPIAGPQVAGANENPGR (UniProt Q96EK9)	-0.18	-0.433
HSPA1A_P0DMV8_306_ARFEELCSDLFR<|>HSPA1B_P17066_306_ARFEELCSDLFR<|>HSPA6_P48741_308_ARFEELCSDLFR (UniProt P48741+P17066+P0DMV8)	0.89	1.28
KDM2A_Q9Y2K7_429_TLAGDSSSDCSR (UniProt Q9Y2K7)	-0.335	-0.285
ITGB2_P05107_481_NCECQTQGR (UniProt P05107)	-0.3	1.18
ILF2_Q12905_291_CLQILAAGLFLPGSVGITDPCESGNFR (UniProt Q12905)	0.343	-0.076
HTATIP2_Q9BUP3_91_NVNQEVVDFEKLDDYASAFQGHDVGFCCLGTTR (UniProt Q9BUP3)	-0.0888	-0.569
ITGAM_P11215_123_GLCFLFGSNLR (UniProt P11215)	0.0447	0.155
HNRNPM_P52272_676_DKFNECGHVLYADIK (UniProt P52272)	-0.0946	-1.48
HNRNPL_P14866_472_QPAIMPGQSYGLEDGSCSYK (UniProt P14866)	-0.158	-0.273
KANSL3_Q9P2N6_103_SVMNECER (UniProt Q9P2N6)	-0.184	0.0606
IGF2R_P11717_538_GCPEDAAVCAVDK (UniProt P11717)	-0.117	0.048
KARS_Q15046_427_KILDDICVAK (UniProt Q15046)	-0.516	-1.13
KPNA4_O00629_417_DQVAYLIQQNVIPPFCNLLTVK (UniProt O00629)	0.479	0.345

Target	probe-labelled cysteine peptide fold change (10 µM)	probe-labelled cysteine peptide fold change (50 µM)
IPO13_O94829_951_EFTLLCR (UniProt O94829)	0.0897	0.281
LARS_Q9P2J5_1053_IREDCCPGKPLNVFR (UniProt Q9P2J5)	-0.201	-0.404
IP6K1_Q92551_221_YPCVLDLK (UniProt Q92551)	-0.171	-0.00183
IDUA_P35475_241_HCHDGTNFFTGEAGVR (UniProt P35475)	0.242	-0.158
HSPA4_P34932_34_CTPACISFGPK (UniProt P34932)	0.0694	-0.11
HNRNPL_P14866_452_LNVCVSK (UniProt P14866)	-0.00163	-0.0389
KBTBD6_Q86V97_173_RLDLTNCTAILK<|>KBTBD7_Q8WVZ9_173_RLDLTNCTAILK (UniProt Q8WVZ9+Q86V97)	0.229	0.385
JUND_P17535_336_VLSHVNSGCQLLPQHQVPAY (UniProt P17535)	0.151	0.00846
IL1RAP_Q9NPH3_47_CPLFEHFLK (UniProt Q9NPH3)	-0.224	0.177
HTATIP2_Q9BUP3_172_YSVFRPGVLLCDR (UniProt Q9BUP3)	-0.197	-0.113
ITGB7_P26010_91_GCPLEELEEPR (UniProt P26010)	-0.127	0.134
IPO4_Q8TEX9_708_LLECPHLNVR (UniProt Q8TEX9)	-0.159	-1.14
INPP5D_Q92835_385_EGFCQLLQQMK (UniProt Q92835)	-0.236	0.0285
KIF2C_Q99661_344_ATCFAYGQTGSGK (UniProt Q99661)	0.145	0.0641
HNRNPF_P52597_34_GLPWSCSVEDVQNFLSDCTIHDGAAGVHFIYTR (UniProt P52597)	0.154	0.3
LASP1_Q14847_5_MNPNCAR (UniProt Q14847)	0.0494	0.246
HSPG2_P98160_3043_CLIHDGAAPISLEWK (UniProt P98160)	-0.0778	-0.0952
KLHDC4_Q8TBB5_373_EEPEGGSRPACGGAGTQGPVQLVK (UniProt Q8TBB5)	-0.0404	-0.104
HUWE1_Q7Z6Z7_2721_ENRDQSAQCTASK (UniProt Q7Z6Z7)	-0.519	-1.1
KDELC1_Q6UW63_493_VEPQTEDDLFPCTCHR (UniProt Q6UW63)	0.1	0.204
KPNA3_O00505_417_DQVEYLVQQNVIPPFCNLLSVK (UniProt O00505)	0.149	0.121

Target	probe-labelled cysteine peptide fold change (10 µM)	probe-labelled cysteine peptide fold change (50 µM)
KPNB1_Q14974_223+228_HFIMQVVCEATQCPDTR (UniProt Q14974)	-0.0406	-0.0077
ITGAV_P06756_172_TVEYAPCR (UniProt P06756)	-0.159	0.026
ITGB2_P05107_286_CHLEDNLYK (UniProt P05107)	-0.0831	0.121
HNRNPUL2_Q1KMD3_538_RNFILDQCNVYNSGQR (UniProt Q1KMD3)	-0.0524	0.251
KDM2A_Q9Y2K7_582_ACVQGECGVCHYCR (UniProt Q9Y2K7)	0.154	0.106
JMJD1C_Q15652_2163_LYSDIPHSWICEK (UniProt Q15652)	-0.133	-0.539
ITPRID2_P28290_448_EPCAPLTIPSIR (UniProt P28290)	-0.245	-0.0121
ITGB2_P05107_590_VECSGR (UniProt P05107)	0.585	0.264
KDM3B_Q7LBC6_72_AMSGAVPQDLAIFVEFDGCNWK (UniProt Q7LBC6)	0.0802	0.334
HSPA14_Q0VDF9_440_QHTLQAPGSISSVCLELYESDGK (UniProt Q0VDF9)	0.106	0.0226
JUP_P14923_609_VAAGVLCELAQDK<|>CTNNB1_P35222_619_VAAGVLCELAQDK (UniProt P35222+P14923)	0.164	1.06
KIAA0391_O15091_469+493_QASCFFADDISEDDPFLLYATLHSGNHCR (UniProt O15091)	0.0905	-0.0707
IKBKG_Q9Y6K9_396_RSPPEEPPDFCCPK (UniProt Q9Y6K9)	0.158	0.168
KIF23_Q02241_165_NSMDIQCEVDALLER (UniProt Q02241)	-0.11	-0.245
KIF21A_Q7Z4S6_1603_DWVCALGVVPDHPVLLSGCR (UniProt Q7Z4S6)	0.1	-0.243
LARP1_Q6PKG0_238_NGDEDCQR (UniProt Q6PKG0)	1.03	-0.18
KNL1_Q8NG31_2338_QIYQDLFQDCHFYH (UniProt Q8NG31)	0.114	-0.335
IFI35_P80217_107_EHTINMEECR (UniProt P80217)	0.0968	0.0397
